Measurements taken from patent publication US12497460B2, “Anti-MSR1 antibodies and methods of use thereof” (REGENERON PHARMACEUTICALS, INC., priority 2018, dated 2025).

T1: MSR1 on differentiated THP-1 cells (Homo sapiens, UniProt P21757)
T1 construct: endogenous in cells; host or cells: THP-1 cells differentiated with PMA
T1 sequence (P21757 1-451): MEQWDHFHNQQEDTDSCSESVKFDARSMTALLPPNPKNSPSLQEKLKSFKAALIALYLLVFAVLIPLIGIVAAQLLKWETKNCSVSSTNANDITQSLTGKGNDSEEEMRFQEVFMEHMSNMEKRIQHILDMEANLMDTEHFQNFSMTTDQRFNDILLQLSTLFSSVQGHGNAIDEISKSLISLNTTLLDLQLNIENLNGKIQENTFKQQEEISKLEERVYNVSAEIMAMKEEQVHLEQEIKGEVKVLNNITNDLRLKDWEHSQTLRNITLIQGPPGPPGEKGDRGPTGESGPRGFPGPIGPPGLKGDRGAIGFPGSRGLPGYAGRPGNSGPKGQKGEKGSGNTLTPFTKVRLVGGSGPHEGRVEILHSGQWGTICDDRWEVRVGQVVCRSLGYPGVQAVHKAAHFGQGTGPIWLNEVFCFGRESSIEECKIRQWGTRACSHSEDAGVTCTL

T2: His9-hMSR1 (human MSR1 extracellular domain) (Homo sapiens, UniProt P21757)
T2 construct: human MSR1 extracellular domain expressed with a N-terminal nonahistidine tag; His9 (nonahistidine) (N); purchased R&D Systems 2708-MS
T2 sequence (P21757 77-451 limits assumed): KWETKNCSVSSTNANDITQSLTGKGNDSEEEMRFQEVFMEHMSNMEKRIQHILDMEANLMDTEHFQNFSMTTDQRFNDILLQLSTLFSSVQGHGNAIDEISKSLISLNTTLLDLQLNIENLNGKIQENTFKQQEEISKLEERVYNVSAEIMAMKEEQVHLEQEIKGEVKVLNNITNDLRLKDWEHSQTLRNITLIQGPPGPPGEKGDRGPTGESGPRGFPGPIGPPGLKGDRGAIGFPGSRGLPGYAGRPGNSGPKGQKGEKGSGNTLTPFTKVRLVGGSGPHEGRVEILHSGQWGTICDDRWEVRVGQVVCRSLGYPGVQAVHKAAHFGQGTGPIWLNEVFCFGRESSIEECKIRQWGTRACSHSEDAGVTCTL

B1: H1H27751P-N297Q: one of "Twelve anti-MSR1 antibodies"; "made with an N297Q single point mutation in human Fcγ portion" (antibody, V domains shown)
VH: EVQLVESGGGLVQPGGSLRLSCAASGFTFSNYAMHWVRQAPGKGLEYVSAISSNGGSTYYADSVKGRITISRDNSKNTLYLQMGSLRAEDMAVYYCARGRPYYYYFGMDVWGQGTTVTVSS
VL: [here about 100 residues without letters]QFPLNFGGGTKVEIKR
B2: H1H27751P-N297Q-LP1 (conjugate)
VH: B1 VH
VL: [here about 100 residues without letters]QFPLNFGGGTKVEIKR

Assays:
[1] = target: HMM-mfMSR1 (monkey MSR1 extracellular domain); assay: Biacore surface plasmon resonance binding kinetics of anti-MSR1 mAbs, antibody-capture format; conditions: analyte HMM-mfMSR1, NB = no binding observed; for kd: * = no dissociation observed, kd manually fixed at 1.00E−05; for ka: antibody-capture format
Method: Binding affinities and kinetic constants of human anti-MSR1 antibodies for different MSR1 reagents were determined by real-time surface plasmon resonance (Biacore 4000). All binding studies were performed in 10 mM HEPES, 150 mM NaCl, 3 mM EDTA, and 0.05% v/v Surfactant Tween-20, pH 7.4 (HBS-ET) running buffer at 25° C. and 37° C.
(§1) The association rate (ka) and dissociation rate (kd) were determined by fitting the real-time binding sensorgrams to a 1:1 binding model with mass transport limitation using Scrubber 2.0c curve-fitting software. Binding dissociation equilibrium constant (KD) and dissociative half-life (t½) were calculated from the kinetic rates as: […]

[2] = tested on: B16F10.9 cells (MSR1 negative); assay: Flow cytometry binding, MSR1 negative cells; type: cell-based, mouse; conditions: 10 μg/mL antibody
Method: Relative cell surface binding of the anti-MSR1 antibodies to mouse MSR1 expressing cells was determined by flow cytometry using MSR1 positive RAW264.7 cells (ATCC, Catalog #TIB-71) and MSR1 negative B16F10.9 cells (Lin et al. 1998. PNAS 95:8829-8834). For the assay, cells were plated in PBS without calcium and magnesium (VWR Cat #45000-446) and 2% FBS (Saradigm Cat #1500-500) (Staining Buffer) in 96 well V-bottom plates (Axygen Scientific, Cat #P-96-450-V-C-S). To block binding to Fc receptors, RAW264.7 cells were incubated for 30 minutes at 4° C. with 500 μg/mL mouse IgG (Jackson ImmunoResearch, Cat #015-000-003) diluted in staining buffer, while B16F10.9 cells remained in staining buffer. Following Fc receptor blocking, 10 μg/mL of anti-MSR1 antibodies or an isotype control antibody were added to the cells and were subsequently incubated for 30 minutes on ice. For a positive control, a commercial anti-mouse MSR1 (Sino Biological, Cat #50129-R004) antibody was used, while a rabbit IgG antibody (Thermo Scientific, Cat #26102) was used as a negative control. […] Cells were subsequently washed and fixed using a 50% solution of Cytofix (BD Biosciences, Cat #554655) diluted in PBS. […] The signal to noise (S/N) was determined by calculating the ratio of the anti-MSR1 antibodies or the control antibodies MFI to the unstained sample MFI (Table 11).

[3] = target: T1, MSR1 on differentiated THP-1 cells; assay: Binding and internalization of cell-surface expressed MSR1 in differentiated THP-1 cells; type: cell-based; conditions: 10 μg/mL antibody
Method: Exemplary anti-MSR1 antibodies were assessed for their ability to bind and internalize MSR1 on MSR1-expressing cells.
The THP-1 cells were allowed to differentiate for 4 days at 37° C. in 5% CO2. […] The remaining two plates were incubated at 37° C. for 1 hour followed by fixation and staining for 20 minutes using a solution of 4% PFA+5 μM DRAQ5 diluted in PBS (internalization plates). After fixation, all plates were washed once with PBS. […] The remaining plates were incubated with PBS only. Confocal images were acquired on the Opera Phenix (Perkin Elmer) at 40× magnification. […] The total binding at 4° C. (RFU values of 4° C. unquenched wells), total binding at 37° C. (RFU values of 37° C. unquenched wells), the total internalized RFU, and % Internalization were determined for each antibody as shown in Table 14.
For all calculations, background fluorescence from unstained wells was subtracted from every well. Total internalized RFU was calculated as follows: Total RFU of 37° C. unquenched samples−Surface RFU at 37° C. Surface RFU is defined as unquenched RFU at 37° C.−quenched RFU at 37° C.)/QE. QE (quenching efficiency) is defined as: 1−(Total RFU of 4° C. quenched sample/Total RFU of 4° C. unquenched sample). The % Internalization was determined from the following formula: (Total internalized RFU at 37° C./Total RFU at 37° C.)*100.

LXR (THP1/LXR-Luc cells) = assay: LXR-luciferase reporter bioassay (Example 31); type: cell-based, human; conditions: 48 hours
Source text: Generation of assay cell line. To test the efficacy of anti-MSR1 antibody-LXR conjugates in vitro, a cell-based LXR responsive luciferase reporter assay was developed. To generate the assay cell line, a LXR regulated luciferase reporter gene [Cignal Lenti LXR Reporter (luc) kit (Qiagen, Cat #CLS-001 L)] was transduced into THP1 cells, and cells were selected for two weeks in puromycin. The lentivirus expresses the firefly luciferase gene under the control of a minimal CMV promoter and tandem repeats of the LXR transcriptional response element. The resulting cell line is referred to as THP1/LXR-Luc cells.
Assay protocol. THP1/LXR-Luc cells were seeded onto 96 well plates at 40,000 cells/well in media containing RPMI supplemented with 10% FBS and pencillin/streptomycin and subsequently differentiated with 200 nM Phorbol Myristate Acetate (PMA) for 3 days. […] Forty-eight hours later, luciferase activity was determined after the addition of One-Glo™ reagent (Promega, Cat #E6130) to each well. Relative light units (RLUs) were measured on a Victor luminometer (PerkinElmer) and EC50 values were determined using a four-parameter logistic equation over a 10-point dose response curve (GraphPad Prism). The signal to noise (S/N) was determined by calculating the ratio of RLU of standard one over RLU of standard eight for each of the unconjugated anti-MSR1 antibodies or free payloads. […]

[4] = target: T2, His9-hMSR1 (human MSR1 extracellular domain); assay: Biacore T200 surface plasmon resonance binding kinetics of anti-MSR1 antibody-drug conjugates and parental antibodies; conditions: 25° C.
Method: The MSR1 antibodies disclosed herein were conjugated to various liver X receptor (LXR) payloads or various steroid payloads. This example describes how equilibrium dissociation constant (KD) values for human MSR1 reagents binding to human anti-MSR1 antibody-drug conjugates and their corresponding unconjugated parental antibodies were determined using a real-time surface plasmon resonance-based Biacore T200 biosensor.
All binding studies were performed in 10 mM HEPES, 300 mM NaCl, 3 mM EDTA, and 0.05% v/v Surfactant Tween-20, pH 7.4 (HBS-ET) running buffer at 25° C. The Biacore CM4 sensor chip surface was first derivatized by amine coupling with the goat anti-human Fcγ specific polyclonal antibody (Jackson ImmunoResearch Laboratories, Cat #BR-1008-39) to capture anti-MSR1 monoclonal antibodies. Binding studies were performed on human MSR1 extracellular domain expressed with a N-terminal nonahistidine tag (His9-hMSR1; R&D Systems, Cat #2708-MS).
as §1

Molecule	kd ([1]; 25° C.)	ka ([1]; 25° C.)	kd ([1]; 37° C.)	ka ([1]; 37° C.)	B16F10.9 MFI [2]	% Internalization [3]	Total Binding at 4° C. ([3]; 4° C.)	Total Binding at 37° C. ([3]; 37° C.)	Total Internalized RFU ([3]; 37° C.)	EC50 (LXR (THP1/LXR-Luc cells); differentiated THP1/LXR-Luc cells)	S/N (LXR (THP1/LXR-Luc cells); signal to noise, ratio of RLU of standard one over standard eight)	ka ([4]; Table 19, antibody-LXR ADCs and unconjugated antibodies)	kd ([4]; Table 19, * = no dissociation observed, kd manually fixed at 1.00E−05)
B1	0.000749 s⁻¹	744000 M⁻¹ s⁻¹	0.0018 s⁻¹	1.17e+06 M⁻¹ s⁻¹	4992	84.9%	5831744	7998767	6787876 RFU				
B2										1.54 nM	17.9	229000 M⁻¹ s⁻¹	0.000152 s⁻¹
